From PubChem BioAssay AID1347073 (National Center for Advancing Translational Sciences (NCATS), 2019)
About 200 (0.44%) of roughly 45,000 compounds were called active. Inconclusive results (about 7%) are left out. Calls follow the shape of the dose curve; as a rule, active = well fitted activation curve with a large enough effect; inconclusive = small, poorly fitted or top-dose-only effect; inactive = no such curve, though single readings can be large or run the other way. The list shows a part of the results.

assay: qHTS of TDP-43 Inhibitors: NCGC Sytravon Library Screen; conditions: yeast TDP-43 toxicity rescue, BacTiter-Glo growth, 24 h; series mostly up to 46.1 µM; growth rescue (activation): at the top concentration; also: nearly all actives have a fitted effect of over 55% in size; as to growth rescue (activation): 0% is about no effect
Outline: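 TDP-43-expressing yeast, pregrown in raffinose, seeded at OD600 0.02 in galactose medium with compound for 24 hr at 30 deg C. Growth read by BacTiter-Glo luminescence, so rescue of toxicity appears as activation.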
Potency is read from the fitted curve at half-maximal effect.

| Structure (SMILES) | growth rescue (activation) | Potency |
| --- | --- | --- |
| Cc1ccc(NC2=C(NCCO)C(=O)c3ccccc3C2=O)cc1 | inactive: 7.94% |  |
| COc1cccc(C(=O)NC(=S)Nc2ccc(N(C)C)cc2)c1 | inactive: 30.2% |  |
| COc1ccc(C(=O)NN/C(C)=C/C(=O)C(F)(F)C(F)(F)C(F)(F)F)cc1 | inactive: 9.49% |  |
| O=C(/C=C/c1ccc(Cl)c(Cl)c1)N1CCc2ccccc21 | inactive: -11.1% |  |
| CC(C)Oc1ccc(/C=N/NC(N)=S)cc1 |  | active: 12.6 µM |
| CCc1nc2c(OCCC3CCCCC3)cccn2c1N(C=O)Cc1ccccc1 | inactive: 10.3% |  |
| Cc1ccc(-n2c(NN)nc3ccccc3c2=O)c(C)c1 | inactive: 16.9% |  |
| O=C(CSc1ncnc2ccccc12)c1cccs1 | inactive: 20.3% |  |
| O=C(c1cc(-c2ccncc2)nc2ccccc12)N1CCN(c2ncccn2)CC1 | inactive: -1.24% |  |
| O=C(COC(=O)c1ccc2c(=O)n3c(nc2c1)CCC3)Nc1ccc(OC(F)F)cc1 | inactive: 9.43% |  |
| COc1cc(/C=N/NC(=O)CSc2nc3ccccc3n2C)cc(OC)c1OC | inactive: -17.3% |  |
| COc1ccc(C(C)(C)NC(=O)C2CCC(=O)N(C3CC3)C2)cc1OC (centres undefined) | inactive: -0.164% |  |
| COC(=O)C1(C(F)(F)F)N=C(C(F)(F)F)Nc2ccc(Cl)cc21 (centres undefined) | inactive: 19.5% |  |
| O=C(NCc1cc(Cl)cc(Cl)c1)c1ccc2nc([C@@H]3O[C@H](CO)[C@H](O)[C@H](O)[C@H]3O)[nH]c2c1 | inactive: 0.0225% |  |
| CCc1ccc(NC(=S)NC2CCN(Cc3ccccc3)CC2)cc1 | inactive: 18.3% |  |
| CCn1c(O)c(N=NC(=O)Cn2ccc(C(F)(F)F)n2)c2ccccc21 | inactive: 21.2% |  |
| COc1ccc(/C=C2/SC(=O)N(CCC(=O)Nc3ccc(S(=O)(=O)Nc4nccs4)cc3)C2=O)cc1 | inactive: 5.01% |  |
| COC(=O)c1cc(NC(=S)N2CCN(C(=O)C3CCCO3)CC2)cc(C(=O)OC)c1 (centres undefined) | inactive: 17.3% |  |
| COc1cccc(CNc2nc3cc(-c4ccc(F)cc4)sc3c(=O)n2C)c1 | inactive: 24% |  |
| CC1CC(C)CN(S(=O)(=O)c2ccc(NN)nc2)C1 (centres undefined) | inactive: 4.78% |  |
| Oc1ccccc1-c1cc(C(F)(F)F)nc(-c2ccccc2)n1 | inactive: -2.89% |  |
| CCOC(=O)c1c(NC(=O)c2ccncc2)sc(C)c1C | inactive: -3.09% |  |
| Cc1cccc(NC(=O)CC2c3ccccc3Oc3ccccc32)c1 | inactive: 3.4% |  |
| O=C(Nc1ccc(NC(=O)C2CC2)nc1)c1ccccc1F | inactive: -5.96% |  |
| N#Cc1ccccc1OCC(=O)NNC(=O)CNC(=O)c1ccc(Br)o1 | inactive: 15.9% |  |
| COc1ccc(C2C(C(=O)c3ccc(C)o3)=C(O)C(=O)N2Cc2cccnc2)cc1OC (centres undefined) | inactive: 6.7% |  |
| CCn1nc(C(=O)Nc2nc3ccccc3[nH]2)c2ccccc2c1=O | inactive: -5.21% |  |

| Structure (SMILES) | growth rescue (activation) | Potency |
| --- | --- | --- |
| C/C(=N\NC(=O)c1ccccc1O)c1ccc(Br)s1 | inactive: -14.8% |  |
| COC(=O)CSc1nnc(-c2ccc(S(=O)(=O)N3CCCC3)cc2)o1 | inactive: 16.9% |  |
| Cc1ccc(C)c(CN2C(=O)c3ccccc3S(=O)(=O)c3ccc(C(=O)N(C)C4CCCCC4)cc32)c1 | inactive: 8.54% |  |
| CC(/C=N/NC(=O)c1ccco1)=C\c1ccccc1 | inactive: 32.8% |  |
| COC(=O)CCC(=O)N(CCN(C(=O)CCC(=O)OC)c1ccccc1)c1ccccc1 | inactive: -4.96% |  |
| COc1cc(/C=N/N=C/c2cc(OC)c(O)c(OC)c2)cc(OC)c1O | inactive: -28.4% |  |
| Cc1nn(-c2ccccc2)c(OC(=O)C(C)C)c1Sc1ccc(Cl)cc1 | inactive: -91.9% |  |
| COc1ccc(CN(C(=O)c2ccco2)C2CCS(=O)(=O)C2)cc1 (centres undefined) | inactive: 12.9% |  |
| Cc1ccc(OCCC(=O)Nc2ccc(F)c(F)c2)cc1 | inactive: 22.8% |  |
| Cc1ccc(COc2ccc(S(=O)(=O)N3CCCC3)cc2C(N)=O)cc1 | inactive: 10.5% |  |
| CCOc1ccccc1NC(=O)Nc1ccccn1 | inactive: 0.667% |  |
| COc1ccc(C(=O)OCCCN(C)C)cc1OC | inactive: -3.11% |  |
| C=CCOc1ccccc1CNc1ccccc1C | inactive: -0.265% |  |
| COCCCn1c(=O)c2ccccc2n(CC(=O)N2CCCc3ccccc32)c1=O | inactive: 1.15% |  |
| CC(=O)Nc1cccc2c1C(=O)N(c1ccccc1C)C2=O | inactive: 14.1% |  |
| Cn1nc(-c2ccc(NCCO)c([N+](=O)[O-])c2)c2ccccc2c1=O | inactive: -14.3% |  |
| COc1cc(NC(=O)COC(=O)CNC(=O)c2cc(C)cc(C)c2)c(C)cc1[N+](=O)[O-] | inactive: 2.43% |  |
| CCOC(=O)c1c(NC(=O)Cc2cccs2)sc2c1CCCC2 | inactive: -12.4% |  |
| Cc1cc(C)nc(N/N=C/c2cc(C)n(CC(F)(F)F)c2C)n1 | inactive: 10.7% |  |
| CCOC(=O)c1cc(-c2ccccc2)sc1NC(=O)C(C)C | inactive: 10.1% |  |
| CCOC(=O)Cc1[nH]nc2c1C(Cc1ccccc1)C(C#N)=C(N)O2 (centres undefined) | inactive: -6.82% |  |
| CCOc1ccccc1NC(=O)COC(=O)c1nc2nccc(C)n2n1 | inactive: 14.4% |  |
| O=C(COC(=O)c1cnccn1)Nc1ncc(C(F)(F)F)cc1Cl | inactive: 14.9% |  |
| Cc1cc(C)c(C)c(S(=O)(=O)Nc2cccc(S(=O)(=O)Nc3ccccc3C(=O)O)c2)c1C | inactive: -35.9% |  |
| COCC(=O)Nc1cc(C)cn(Cc2c(F)cccc2Cl)c1=O | inactive: 20% |  |
| O=C(Nc1cccc(Cl)c1)c1cnc2sc(N3CCCC3)nn2c1=O | inactive: 3.8% |  |
| Nc1c(C(=O)NCc2ccc3c(c2)OCO3)nnn1Cc1cccc(F)c1 | inactive: 8.57% |  |
